From PubChem BioAssay AID1768 (National Center for Advancing Translational Sciences (NCATS), 2009)
Hit rate of the full screen: of about 270,000 compounds, about 620 (0.23%) were called active. Inconclusive means that the source gave no clear call. Such entries were picked first, then a sample of the others. Calls follow the shape of the dose curve; as a rule, active = well fitted inhibition curve with a large enough effect in the polarisation, with a control signal flat (not every such curve was filed as active); inconclusive = small, poorly fitted or top-dose-only effect, or effect the other way, or a change in a side signal; inactive = no such curve, though single readings can be large or run the other way; the % refers to the polarisation. Potencies of inconclusive entries are doubtful fits and often do not repeat. A note “side channel” means that the fit belongs to a control or component signal, not to the main read-out.
For FP activity change, negative = inhibition in this document: % of control where 0% means no effect.
Potency is read from the fitted curve at half-maximal effect; tags tell the direction and shape of the fitted curve or compound fluorescence and quenching.

These molecules were tested against Menin (Homo sapiens) (UniProt O00255) (assay: qHTS Assay for Inhibitors Targeting the Menin-MLL Interaction in MLL Related Leukemias: Competition With Texas Red Labeled MLL-derived Mutant Peptide). Conditions: fluorescence polarization; FP activity change, negative = inhibition: at 61.6 µM (top of the series).
UniProt O00255, sequence (O00255 whole entry, looked up): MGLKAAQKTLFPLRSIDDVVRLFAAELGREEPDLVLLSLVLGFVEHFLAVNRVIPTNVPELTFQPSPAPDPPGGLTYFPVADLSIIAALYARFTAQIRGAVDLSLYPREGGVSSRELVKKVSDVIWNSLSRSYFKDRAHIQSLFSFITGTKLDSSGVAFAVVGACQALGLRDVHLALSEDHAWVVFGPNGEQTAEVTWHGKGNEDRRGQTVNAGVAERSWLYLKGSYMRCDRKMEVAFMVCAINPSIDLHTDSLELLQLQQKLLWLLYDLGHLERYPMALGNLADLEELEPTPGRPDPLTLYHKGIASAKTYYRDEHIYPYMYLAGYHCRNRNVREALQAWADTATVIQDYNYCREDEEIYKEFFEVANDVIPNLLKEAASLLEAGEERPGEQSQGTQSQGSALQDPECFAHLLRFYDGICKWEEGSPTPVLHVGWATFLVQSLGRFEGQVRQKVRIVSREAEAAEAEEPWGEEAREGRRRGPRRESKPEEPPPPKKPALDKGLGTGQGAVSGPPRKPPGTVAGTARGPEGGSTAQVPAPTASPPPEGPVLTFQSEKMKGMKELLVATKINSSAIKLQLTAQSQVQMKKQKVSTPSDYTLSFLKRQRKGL
For CC1CCCC(NC(=O)COC(=O)/C=C/c2ccc3c(c2)OCO3)C1C (stereo not given), the Potency was inconclusive: 39.8 µM [fluorescent, side channel, single point].
In the case of Cc1nc2cnc(Nc3ccccc3)nc2n(Cc2cccs2)c1=O, the Potency is reported as inconclusive: 3.55 µM [quencher, side channel, full curve, poor fit].
CN(C)c1ccc(N=Nc2ccccc2Br)cc1 was tested, and the Potency was inconclusive: 15.8 µM [quencher, side channel, partial curve].
In the case of CC(C)(C)C(=O)N1CCN(c2ccc(NC(=O)c3ccc([N+](=O)[O-])o3)cc2)CC1, the Potency is reported as inconclusive: 39.8 µM [inhibitor, partial curve, poor fit].
COc1ccc(O)c(-c2cc(-c3cccc(Br)c3)n[nH]2)c1 was tested, and the Potency was inconclusive: 12.6 µM [quencher, side channel, partial curve].
In the case of COc1cc(NC(=O)c2ccc3c(c2)OCO3)c2ncccc2c1, the Potency is reported as inconclusive: 31.6 µM [quencher, side channel, single point].
CCCN1C(=O)/C(=C/C=C2\N(CC)c3ccccc3C2(C)C)SC1=S was tested, and the Potency was inconclusive: 15.8 µM [fluorescent, side channel, partial curve].
With CCCCn1c(/C=C/c2ccco2)nc2ccccc21 the Potency was inconclusive: 39.8 µM [quencher, side channel, single point].
For COc1cc(OC)c(-c2c3cc(O)c(=O)cc-3oc3cc(O)c(O)cc23)cc1OC, the Potency was inconclusive: 25.1 µM [fluorescent, side channel, partial curve].
Cc1ccc(NP(=O)(Nc2ccc(C)cc2)Nc2ccc(C)cc2)cc1 was tested, and the Potency was inconclusive: 20 µM [fluorescent, side channel, partial curve].
In the case of N/C(Cc1ccc(Cl)cc1Cl)=N\OC(=O)c1cccs1, the Potency is reported as inconclusive: 8.91 µM [inhibitor, single point].
In the case of COc1ccc(-n2c(SCC#N)nc3c(sc(=S)n3-c3ccccc3)c2=O)c(OC)c1, the Potency is reported as inconclusive: 39.8 µM [inhibitor, single point].
CCN1C(=O)/C(=C/c2cccs2)N(C)C1=S was tested, and the Potency was inconclusive: 39.8 µM [fluorescent, single point].
In the case of CSc1ccccc1OCc1cc(C(=O)NCCCc2ccccc2)no1, the Potency is reported as inconclusive: 31.6 µM [fluorescent, side channel, partial curve].
In the case of Cc1ccc(OCc2nnc(SCC(=O)C(C)(C)C)n2Cc2ccco2)cc1, the Potency is reported as inconclusive: 10 µM [fluorescent, side channel, partial curve].
Cc1cc(C)c(C#N)c(N2CCN(c3ccc(F)cc3)CC2)n1 was tested, and the “FP activity change, negative = inhibition” value was inactive: -4.27%.
COc1ccccc1Nc1ncnc2c1c(C)c(C)n2CCCN(C)C was tested, and the Potency was inconclusive: 0.708 µM [inhibitor, full curve, poor fit].
In the case of Cc1nc(N2CCOCC2)c(C#N)c2c1COC(C)(C)C2, the “FP activity change, negative = inhibition” value is reported as inactive: -14.6%.
With CC(C)Cc1nc(N2CCN(C(=O)c3ccccc3)CC2)c(C#N)c2c1CCC2 the Potency was inconclusive: 1.78 µM [fluorescent, side channel, full curve].
With O=C(O)COc1ccc(/C=C/C(=O)c2ccc3ccccc3c2)cc1 the Potency was inconclusive: 17.8 µM [quencher, side channel, single point].
COc1ccc2nc(N3C(=O)CC(C(C)c4ccccc4)C3=O)sc2c1 (stereo not given) was tested, and the “FP activity change, negative = inhibition” value was inactive: -14.5%.
With [O-][n+]1cccc(CO)c1 the “FP activity change, negative = inhibition” value was inactive: -12.3%.
In the case of CCCCCC(=O)N1CCN(CCN=CC2=C(O)CC(c3ccc(OC)c(OC)c3)CC2=O)CC1 (stereo not given), the Potency is reported as inconclusive: 3.55 µM [inhibitor, single point].
For C#CCOCCOCCOCCNc1nc(N2CCN(C(=O)[C@H]([C@@H](C)CC)n3cc([C@@H](N)Cc4ccc(O)cc4)nn3)CC2)nc(N2CCN(C(=O)[C@H](Cc3cc4ccccc4[nH]3)n3cc([C@@H](N)C(C)CC)nn3)CC2)n1 (stereo not given in full), the Potency was inconclusive: 0.891 µM [fluorescent, side channel, full curve].
For Oc1ccc(/C=N/Nc2nccnc2Cl)c(O)c1, the Potency was inconclusive: 39.8 µM [fluorescent, single point].
In the case of Cc1csc(NC(=O)Cc2coc3cc(C)c(C(C)C)cc23)n1, the Potency is reported as inconclusive: 14.1 µM [quencher, side channel, partial curve].
COc1ccccc1N1CCN(C(=O)c2oc3ccc(F)cc3c2C)CC1 was tested, and the Potency was inconclusive: 39.8 µM [fluorescent, side channel, single point].
For COC(=O)c1cc(C(=O)OC)cc(N2C(=O)CC(NNC(=O)c3ccccc3Br)C2=O)c1 (stereo not given), the Potency was inconclusive: 12.6 µM [quencher, side channel, partial curve].
For Cc1cc(O)cc2c1C(=O)/C(=C/c1ccco1)O2, the Potency was inconclusive: 25.1 µM [quencher, side channel, partial curve].
In the case of O=C1Nc2ccc(S(=O)(=O)N(CCO)CCO)c3cccc1c23, the Potency is reported as inconclusive: 10 µM [quencher, side channel, partial curve].
Cc1ccc(S(=O)(=O)N/N=C/c2cc([N+](=O)[O-])ccc2O)cc1[N+](=O)[O-] was tested, and the Potency was inconclusive: 35.5 µM [quencher, side channel, single point].
For CC(=O)Oc1c(Br)cc(N(C(C)=O)S(=O)(=O)c2ccccc2)c2ccccc12, the Potency was inconclusive: 17.8 µM [quencher, side channel, partial curve].
Cc1noc(NS(=O)(=O)c2ccc(NC(=O)c3ccc(OC(C)C)cc3)cc2)c1C was tested, and the Potency was inconclusive: 14.1 µM [quencher, side channel, partial curve].
For Cc1ccc(N(C(=O)CNC(=O)c2ccco2)C(C(=O)NC2CCCC2)c2ccncc2)cc1C (stereo not given), the Potency was inconclusive: 28.2 µM [inhibitor, single point].
CC(C)(C)C(=O)CCN1C(=O)C2(OCCO2)c2ccccc21 was tested, and the Potency was inconclusive: 25.1 µM [inhibitor, single point].
In the case of COc1ccc(-n2nc3c(N4CCC(C(=O)NCC(C)c5ccccc5)CC4)nnc(C)c3c2C)cc1 (stereo not given), the Potency is reported as inconclusive: 1.58 µM [fluorescent, side channel, full curve, poor fit].
With CC(/C=N/n1c(COc2ccccc2)n[nH]c1=S)=C\c1ccccc1 the Potency was inconclusive: 28.2 µM [quencher, side channel, single point].
In the case of Cc1cc(NS(=O)(=O)c2ccc(NC(=O)CCCOc3ccc(Cl)cc3)cc2)no1, the Potency is reported as inconclusive: 35.5 µM [quencher, side channel, single point].
CC1=CC(=C(c2ccc(N)cc2)c2ccc(N)cc2)C=CC1=N was tested, and the Potency was inconclusive: 31.6 µM [inhibitor, partial curve].
In the case of COc1ccc(Cc2nnc(N/N=C/c3ccc(O)cc3O)[nH]c2=O)cc1OC, the Potency is reported as inconclusive: 28.2 µM [quencher, side channel, single point].
CC(=O)Nc1ccc(S(=O)(=O)N2CCN(S(=O)(=O)c3ccccc3)CC2)cc1 was tested, and the Potency was inconclusive: 35.5 µM [inhibitor, single point].
In the case of CSCCCNC(=O)c1ccc(OC2CCN(CCc3ccccc3)CC2)cc1, the Potency is reported as inconclusive: 14.1 µM [inhibitor, partial curve].
O=C(Nc1cccc(C(F)(F)F)c1)c1ccc(Cn2cc(Br)cn2)o1 was tested, and the Potency was inconclusive: 20 µM [quencher, side channel, single point].
N#Cc1c(N)oc(-c2ccc3c(c2)OCO3)c1-c1ccc2c(c1)OCO2 was tested, and the Potency was inconclusive: 17.8 µM [quencher, side channel, single point].
With COc1ccccc1NC(=O)c1ccc(NS(=O)(=O)c2ccc(F)c(F)c2F)cc1 the Potency was inconclusive: 20 µM [quencher, side channel, partial curve].
NCC(c1ccco1)c1c[nH]c2ccccc12 (stereo not given) was tested, and the Potency was inconclusive: 17.8 µM [quencher, side channel, partial curve].
For Cc1ccc(Nc2nc(N/N=C/c3c[nH]c4ccccc34)nc(N3CCOCC3)n2)cc1, the Potency was inconclusive: 2.82 µM [quencher, side channel, full curve].
For CCCN1C(=O)C(O)(CC(=O)c2cccc(OC)c2)c2ccccc21 (stereo not given), the Potency was inconclusive: 7.94 µM [inhibitor, full curve].
In the case of COc1ccc(-n2c(SC)nc3sc4c(c3c2=O)CCN(C)C4)cc1, the Potency is reported as inconclusive: 8.91 µM [inhibitor, full curve, poor fit].
O=c1nc2s/c(=C\c3ccco3)c(=O)n2nc1Cc1ccccc1 was tested, and the Potency was inconclusive: 28.2 µM [quencher, side channel, single point].
In the case of Cc1ccc(NC(=O)c2ccc(S(=O)(=O)NCc3ccco3)cc2)cc1, the Potency is reported as inconclusive: 39.8 µM [fluorescent, side channel, single point].
For O=c1c(C=NCCN2CCNCC2)c(-c2ccccc2)[nH]n1-c1ccc([N+](=O)[O-])cc1, the Potency was inconclusive: 3.16 µM [quencher, side channel, partial curve].
In the case of Cc1ccccc1Nc1nc(-c2sc(NC(=O)c3ccco3)nc2C)cs1, the Potency is reported as inconclusive: 25.1 µM [quencher, side channel, partial curve].
C=CCNC(=O)CNS(=O)(=O)c1ccc(F)cc1 was tested, and the Potency was inconclusive: 39.8 µM [inhibitor, single point].
With CN(C(=O)Cn1nnc(-c2cccc(C(F)(F)F)c2)n1)C1CCCCC1 the Potency was inconclusive: 28.2 µM [fluorescent, side channel, single point].
